Over roughly 110,000 compounds, “z-score” has its median near -0.1; the highest 2% begin near 2. The list shows a part of the results. Active and inactive are the calls of the source.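 The calls were made as follows: active = z-score in the third read window above 3 or below -3; inactive = the rest.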
target: Metabotropic glutamate receptor 8 (Rattus norvegicus) (UniProt P70579); assay: rat mGluR8 modulators via GIRK flux, primary screen, cell-based, thallium flux, HTS (AID 488969); conditions: HEK293 rat mGluR8, GIRK (G protein-gated inwardly rectifying potassium channel) thallium flux, FluoZin2; at 10 µM; stronger effect = higher value; submaximal glutamate (EC20) added with thallium
Sequence of UniProt P70579 (P70579 whole entry, looked up): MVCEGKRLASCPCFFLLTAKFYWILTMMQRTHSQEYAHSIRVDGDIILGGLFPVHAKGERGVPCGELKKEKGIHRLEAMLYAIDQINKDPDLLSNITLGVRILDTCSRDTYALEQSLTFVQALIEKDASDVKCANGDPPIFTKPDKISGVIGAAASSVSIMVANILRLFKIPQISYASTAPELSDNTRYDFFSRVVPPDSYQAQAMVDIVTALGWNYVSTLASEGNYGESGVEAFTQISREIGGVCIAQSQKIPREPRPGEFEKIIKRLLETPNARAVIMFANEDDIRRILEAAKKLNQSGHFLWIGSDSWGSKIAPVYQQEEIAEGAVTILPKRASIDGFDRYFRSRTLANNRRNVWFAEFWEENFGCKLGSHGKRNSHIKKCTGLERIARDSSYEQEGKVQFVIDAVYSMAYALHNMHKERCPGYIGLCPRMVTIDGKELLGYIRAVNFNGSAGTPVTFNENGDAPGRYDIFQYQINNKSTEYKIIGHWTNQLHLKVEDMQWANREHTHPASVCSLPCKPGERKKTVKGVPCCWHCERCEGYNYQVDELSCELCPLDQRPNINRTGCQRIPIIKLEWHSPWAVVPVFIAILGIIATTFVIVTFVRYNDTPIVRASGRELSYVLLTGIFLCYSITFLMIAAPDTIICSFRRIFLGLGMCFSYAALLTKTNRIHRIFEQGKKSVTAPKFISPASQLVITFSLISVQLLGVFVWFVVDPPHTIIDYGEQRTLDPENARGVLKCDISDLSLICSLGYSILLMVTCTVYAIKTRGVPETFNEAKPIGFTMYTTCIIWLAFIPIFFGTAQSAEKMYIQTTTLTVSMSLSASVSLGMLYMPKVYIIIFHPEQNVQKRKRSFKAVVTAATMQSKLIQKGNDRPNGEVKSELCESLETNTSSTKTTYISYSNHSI

| Structure (SMILES) | z-score |
| --- | --- |
| O=C(c1c(F)cccc1F)N(Cc1ccccn1)C1CC1 | -0.179 |
| O=C(NC1CC1)c1cccc(Nc2ccc(-c3ccc4c(c3)OCCO4)nn2)c1 | -1.81 |
| CCOC(=O)CCCc1c[nH]c2ccccc12 | -0.315 |
| O=C(NC12CC3CC(CC(C3)C1)C2)c1ccc(-c2ccc(Br)cc2)o1 | 0.125 |
| COc1ccc(OC)c(NS(=O)(=O)c2cc(OC)ccc2OC)c1 | -0.0402 |
| O=S(=O)(c1ccc(S(=O)(=O)N2CCN3CCCC3C2)cc1)N1CCCC1 (stereo unspecified) | 0.676 |
| C=CCn1c(N)cc(=O)nc1SCC(=O)NC(C)c1ccccc1 (stereo unspecified) | -0.047 |
| c1ccc(-c2csc3ncnc(NCCN4CCOCC4)c23)cc1 | 0.0632 |
| CCCCN(C)CCNS(=O)(=O)c1ccc2c(c1)n(C)c(=O)c(=O)n2C | -0.533 |
| CCCCOC(=O)c1ccccc1N1C(=O)C2C3CCC(C3)C2C1=O (stereo unspecified) | -0.205 |
| O=C(CCCCCn1c(=S)[nH]c2ccc(Br)cc2c1=O)NCC1CCCO1 (stereo unspecified) | 1.92 |
| Cc1cccc(NC(=O)C2C3CCC4C(CCC32)C4(Cl)Cl)c1 (stereo unspecified) | -0.281 |
| CC(C)(C)N=C1C([N+](=O)[O-])=CC=C2C1=NC1(CCCCC1)N2O | -0.149 |
| COc1ccc(C)cc1NS(=O)(=O)c1cc(C)ccc1C | -0.0933 |
| CC(=O)Nc1ccc(Oc2cnc3ccccc3n2)cc1 | -0.0432 |
| CCc1nnc(NC(=O)C2CCCCC2)s1 | -0.155 |
| O=C(Nc1ccc2nc[nH]c2c1)c1ccco1 | 0.869 |
| CN1CCN(C2=Cc3ccccc3Sc3cc(F)ccc32)CC1 | 0.561 |
| CC1CCCCC1NC(=O)COC(=O)c1ccc2c(c1Cl)C(=O)c1ccccc1C2=O (stereo unspecified) | -0.0566 |

| Structure (SMILES) | z-score |
| --- | --- |
| COC(=O)CN1C(=S)N(c2ccc(Cl)cc2)C(=O)C1CC(=O)Nc1ccc(Cl)cc1 (stereo unspecified) | 0.304 |
| CCC(C)NS(=O)(=O)c1ccc(OCC(=O)NCc2cccnc2)cc1 (stereo unspecified) | -0.0632 |
| COc1cc(O)oc1C=Nc1ccc(Cl)cc1Cl | -0.0394 |
| O=C(CSc1nnc(-c2cccnc2)o1)c1cc2ccccc2oc1=O | -0.123 |
| OC(CN1CCN(c2ccccn2)CC1)Cn1c2ccc(Cl)cc2c2cc(Cl)ccc21 (stereo unspecified) | -0.206 |
| CC(/C=C/c1ccc2c(c1)OCO2)=N\NC(=O)COc1ccccc1C | -0.923 |
| CC(=O)Nc1ccc(S(=O)(=O)N2CCN(c3cccc(C)c3C)CC2)cc1 | 0.787 |
| O=C(c1ccccc1)N1CCN(C2C3CC4CC(C3)CC2C4)CC1 (stereo unspecified) | -0.163 |
| O=c1sc(N2CCN(c3ccccc3F)CC2)nc2ccsc12 | active: -4.43 |
| CCOc1ccc2cc(C#N)c(SCC(=O)N3CCOCC3)nc2c1 | 0.126 |
| Cc1nc2ccccc2c(=O)n1NC(=O)Cc1ccc(Br)cc1 | -0.13 |
| Cn1c(-c2ccc[nH]c2=O)nc2cc(Cl)ccc21 | -0.33 |
| O=C(Oc1ccc2c(c1)CCC2)N1CCOCC1 | -0.618 |
| CCOC(=O)C1CCN(C(=O)Nc2ccc3oc(C)nc3c2)CC1 | 0.732 |
| CCN1C(=O)CC(N2CCC(Nc3ccc(F)cc3)CC2)C1=O (stereo unspecified) | 0.0123 |
| CC(=O)N1CCN(c2ccc(NCc3ccc(F)cc3)cc2)CC1 | 0.0515 |
| Cc1ccc(/C=C(\C#N)C(=O)Nc2c(C)cccc2C)s1 | -0.0444 |
| CCCc1nnc(SCC(=O)Nc2ccc(OCC)cc2)n1N | -0.0268 |
| COc1ccc(/C=N/Nc2ncnc3sc(C)c(C)c23)cc1 | -0.275 |

| Structure (SMILES) | z-score |
| --- | --- |
| Cc1cc(C)n(-c2nncn2NC(=O)c2ccc(Cl)cc2O)n1 | 2.24 |
| O=C(c1cccs1)C1C(c2ccc(Br)cc2)NC(=S)NC1(O)C(F)(F)F (stereo unspecified) | -0.3 |
| CCOC(=O)N1CCC(NC(=O)c2ccc3nc(N4CCOCC4)sc3c2)CC1 | -0.434 |
| COC(=O)c1cccc(NC(=O)CSc2nnc(COc3ccccc3)n2C)c1 | -0.736 |
| C=CCO/N=C(\C)c1c(O)c(C)c(-c2ccccc2)n(-c2ccccc2)c1=O | -0.387 |
| CC1CC(C)CN(c2ncc3c(n2)CC(c2ccccc2Cl)CC3=O)C1 (stereo unspecified) | -0.181 |
| CCC(C)c1ccc(NC(=S)NCc2cccs2)cc1 (stereo unspecified) | 0.19 |
| COc1ccc(NC(=O)N(CCCN2CCOCC2)Cc2cccnc2)c(OC)c1 | -0.339 |
| N#Cc1c(NC(=O)c2ccncc2)sc2c1CCC2 | -0.0185 |
| CC1CCC(NC(=O)Cn2cc3c(n2)CCCC3)CC1 (stereo unspecified) | 2.79 |
| CC(=O)Nc1ccc(NC(=O)C(C)Oc2ccccc2F)cc1 (stereo unspecified) | 0.226 |
| CC1=CC(c2ccc(Cl)cc2)n2nc(N3C(=O)CCC3=O)nc2N1 (stereo unspecified) | -0.167 |
| O=C(Cn1cnc2c(oc3ccccc32)c1=O)NCc1ccco1 | -0.11 |
| Cc1oc(-c2ccc(Cl)cc2)nc1CN1CCC(C(=O)NCc2ccco2)CC1 | -0.785 |
| O=C(NC1CCCc2ccccc21)C1CCN(S(=O)(=O)c2cccc3nonc23)CC1 (stereo unspecified) | 0.643 |
| COc1ccc(NC(=O)CC(c2ccc(F)cc2)c2ccc(OC)cc2)cc1 (stereo unspecified) | -0.576 |
| COC(=O)C1=C(N)Oc2cc(C)[nH]c(=O)c2C1c1cccnc1 (stereo unspecified) | 0.324 |
| O=[N+]([O-])c1cccc(/C([O-])=C(/C(=S)Nc2cccc3ccccc23)[n+]2ccccc2)c1 | 0.203 |
